Assay results reported in article PMC4336329 (PLoS ONE, 2015).
Hit rate of the full screen: of about 310,000 compounds, about 2,200 (0.71%) showed an effect of 50% or more. Effects have a minus sign here. The list shows a part of the results.

target: human ether-à-go-go-related gene (hERG) potassium channel (human, UniProt Q12809); experiment: primary screen, population patch clamp on CHO cells stably expressing hERG
Sequence (Q12809 whole entry, looked up): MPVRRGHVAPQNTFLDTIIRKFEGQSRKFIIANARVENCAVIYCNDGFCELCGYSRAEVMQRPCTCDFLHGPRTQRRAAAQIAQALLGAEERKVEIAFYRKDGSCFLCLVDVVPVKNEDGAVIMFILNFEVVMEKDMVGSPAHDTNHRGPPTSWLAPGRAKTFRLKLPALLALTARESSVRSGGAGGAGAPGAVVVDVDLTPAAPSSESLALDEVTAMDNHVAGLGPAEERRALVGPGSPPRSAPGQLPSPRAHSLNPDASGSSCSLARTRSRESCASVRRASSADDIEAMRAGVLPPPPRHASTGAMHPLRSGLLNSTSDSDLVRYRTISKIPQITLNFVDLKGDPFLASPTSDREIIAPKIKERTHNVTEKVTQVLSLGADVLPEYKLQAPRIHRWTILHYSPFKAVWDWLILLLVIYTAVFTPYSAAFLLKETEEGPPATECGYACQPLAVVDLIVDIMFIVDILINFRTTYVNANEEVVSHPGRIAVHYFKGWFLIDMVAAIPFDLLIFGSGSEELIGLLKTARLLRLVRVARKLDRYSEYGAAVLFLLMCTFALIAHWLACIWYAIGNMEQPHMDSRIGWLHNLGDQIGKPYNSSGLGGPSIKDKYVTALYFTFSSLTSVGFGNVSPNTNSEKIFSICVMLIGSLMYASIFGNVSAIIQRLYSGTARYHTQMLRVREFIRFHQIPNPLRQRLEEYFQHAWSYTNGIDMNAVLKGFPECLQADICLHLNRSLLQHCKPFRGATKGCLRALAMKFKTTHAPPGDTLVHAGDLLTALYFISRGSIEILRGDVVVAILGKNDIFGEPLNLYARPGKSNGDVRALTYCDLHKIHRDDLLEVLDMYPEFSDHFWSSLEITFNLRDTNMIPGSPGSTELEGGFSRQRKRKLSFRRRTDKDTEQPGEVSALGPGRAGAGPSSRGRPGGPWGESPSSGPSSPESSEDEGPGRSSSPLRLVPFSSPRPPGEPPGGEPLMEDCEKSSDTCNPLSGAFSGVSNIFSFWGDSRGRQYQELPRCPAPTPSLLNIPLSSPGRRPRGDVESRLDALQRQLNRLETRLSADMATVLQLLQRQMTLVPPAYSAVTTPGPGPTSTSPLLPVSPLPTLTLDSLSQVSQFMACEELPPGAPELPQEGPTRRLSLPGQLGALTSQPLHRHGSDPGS

| Structure (SMILES) | hERG current change (%, negative = inhibition) at 1uM [%] |
| --- | --- |
| C=CCNC(=O)c1sc(=S)n(-c2ccc(C(=O)OCC)cc2)c1N | 2.24 |
| COc1ccc(Cn2c(O)c(C=Nc3ccccc3C(=O)O)c3ccccc3c2=O)cc1 | 8.05 |
| COc1ccc(CNc2n[nH]c(NCc3ccc(OC)c(OC)c3)n2)cc1OC | -4.9 |
| CCn1c(=O)cc(OCC(=O)NCc2ccc(C)o2)c2ccccc21 | -2.75 |
| O=C(CN1CCOCC1)N1c2ccccc2Sc2ccccc21 | 11.6 |
| CCN(c1ccccc1)S(=O)(=O)c1ccc2[nH]cc(C(=O)NCCOC)c(=O)c2c1 | 11.1 |
| CCOC(=O)c1c(S(=O)(=O)N2c3ccccc3CC2C)c(C)n(C)c1C (stereo not shown) | 16.4 |
| CC(=O)c1cn(CCC(C)C)c(=O)[nH]c1=O | -3.77 |
| CCc1cc(C(=O)N2CCN(S(=O)(=O)c3ccccc3F)CC2)sc1C | 3.45 |
| COc1ccc(C(=O)CSc2n[nH]c(C)n2)cc1[N+](=O)[O-] | 13.9 |
| CCN(CC)CCNC(=O)c1ccc(NC(=O)COc2ccc3c(c2)CCC3)cc1 | -0.13 |
| COCCSc1ccccc1C(=O)NCCc1ccccc1 | 4.68 |
| COc1ccc2c(c1)OC(O)(C(F)(F)F)CC2=O (stereo not shown) | 0.384 |
| O=C1Cc2cccc3cccc1c23 | 14.2 |
| Cc1sc2ncnc(NCC(c3ccccc3)N(C)C)c2c1C (stereo not shown) | 3.88 |
| Cc1ccc(N2CC(O)(c3cccs3)[N+]3=C2CCCC3)cc1.[Br-] (stereo not shown) | 0.544 |
| S=c1nc[nH]c2c1cnn2-c1ccccc1 | 14 |
| COc1ccc(CNC(=S)NCc2ccc(OC(C)C)cc2)cc1 | 1.35 |
| COc1ccc(C(CC(=O)N2CCCC2)C(C)C)cc1 (stereo not shown) | 6.31 |
| COc1cc2[nH]c(=S)n(Cc3ccco3)c(=O)c2cc1OC | -1.66 |
| CCCCCCCN(C(=O)CCl)c1cccc(C)c1 | 1.25 |
| Nc1nc(NCc2ccccc2)nc(NCCO)c1[N+](=O)[O-] | 8.3 |
| O=C(c1ccco1)n1c(=S)nc2ccccn21 | 24.1 |

| Structure (SMILES) | hERG current change (%, negative = inhibition) at 1uM [%] |
| --- | --- |
| C[C@H](NC(=O)C(c1ccccc1)c1ccccc1)c1ccccc1 | 5.44 |
| Cc1ccc(/C=N/NC(=O)c2ccc3ccccc3c2)s1 | 14.3 |
| CCN(CC)C1CCS(=O)(=O)C1.Cl (stereo not shown) | 7.34 |
| COCCNC(=O)Cn1nc(C(F)(F)F)c(Cl)c1C | -3.69 |
| Cc1ccsc1-c1nc(C(N)=O)c2[nH]c(=O)n(-c3ccc(Cl)cc3)c2n1 | 9.02 |
| Cl.N=C(N)N1CCc2ccccc21 | 5.53 |
| CCn1ccnc1CN(C)Cc1cn(-c2ccccc2)nc1-c1ccc(OC)cc1F | 0.111 |
| CC(C)=C1C2CCC1C1C(=O)N(c3nc(-c4ccccc4)c(C)s3)C(=O)C21 (stereo not shown) | 5.76 |
| COCCNS(=O)(=O)c1ccc2c3c(cccc13)C(=O)N2C | 13.8 |
| COc1ccccc1N1CCN(C(=O)CN2C(=O)c3cccc4cccc(c34)C2=O)CC1 | 8.79 |
| CN(CC(=O)Nc1ccc(Cl)cc1)C(=O)c1cccc(S(=O)(=O)NCc2ccccc2)c1 | 12.7 |
| CCCOc1ccc(-c2csc(NC(=O)CN3C(=O)CCC3=O)n2)cc1 | 10.9 |
| N=C1S/C(=C\c2ccco2)C(=O)N1c1ccc2c(c1)OCO2 | 13 |
| CN(C)S(=O)(=O)Oc1cccc(C(=O)Nc2ccc(Cl)cc2)c1 | 10.1 |
| c1ccc2nc(SCc3cn4ccccc4n3)cnc2c1 | -4.84 |
| O=C(c1ccc(CNS(=O)(=O)c2ccc(Br)cc2)cc1)N1CCCC1 | 6.66 |
| O=C1Nc2cc(C(=O)N3CCN(Cc4ccccc4)CC3)ccc2SC1N1CCOCC1 (stereo not shown) | 1.53 |
| C=CC(=O)NCCCc1cc(C(C)(C)C)c(O)c(C(C)(C)C)c1 | 10.4 |
| CN(C)C(=O)c1cc(F)ccc1Sc1cc(Cl)ccc1Cl | 5.79 |
| Cc1ccc(SCCc2ccc(C)nc2)cc1 | -1.69 |
| CCOC(=O)C1CCN(CC(=O)c2c(C)[nH]c3ccccc23)CC1 | -19.1 |
| COc1ccc(CCNC(=O)Cn2nnc(C(=O)Nc3ccc(Br)cc3)c2N)cc1OC | 8.59 |
| CCCCCCCCNC(=O)CCNC(=O)c1ccc(C(C)(C)C)cc1 | 8.67 |
